The labels stand for the following.
B1: LC3A_28_1260 (protein)
chain: SELEKNIEAAIAEVKEAVAKGEEAVVTIKVPAGITEEEVEKVIETMEKIAELGKSLPSVTIIVDVEKGVKQEHIDKLVDKGEELEKKYPNLTVIFALEEE
B2: LC3A_3_1593 (protein)
chain: MEELVERALERLREAGLSPEVLEAARRLLELLAERGYEEAIETLTEELLELKDAPTELLVAMLEELERIVETEDLSEEEIIERIREEARLARLESEIEEL
B3: LC3A_127_216 (protein)
chain: ELEKLLKEAEKVAEELIKNLEKEDYNLEEIEKLNEELLKLAEEAVKLDPRVQPLLEDAEEMKKLIEEMKKANPAEQEELREIMIMLAEGILIEITRLLLE
B4: LC3A_28_1294 (protein)
chain: SPIEEELKKALERAKKAREEGKQEVIVVKVPGDATEEEIEKVIEGLEEIAEVLKDVENQTIIIDVDAGVPQEHIDKLAKKAEEIEKKYPNVTVIIALDED
B5: LC3A_3_1644 (protein)
chain: LEEEVAATEALLRAAGASEETLAAFRETAELLRERGFEEALRTLIEEVRELADLPSELLLDFLEEVLYELKTKDLNEEEVIERIREIATVTRNESEIIEL
B6: LC3A_3_1906 (protein)
chain: MEELIEELLEYLKEKGADEETIENARKLLEKLKELGLEETLKLAIESIKELADKSVELAKEFIEELLKFLEEHKGSVEELEKELKELITVLKNEALIEEL
B7: LC3A_free_26_2163 (protein)
chain: EEFVDIYNIDKAIELVEEAKKLLEKEDPSLKEEIKLLEEAIKELEKETLESLEKALKLLKEAKKLVEKNKSLSEEVKKKLIKLLEEAIKLVEENIEIMKS
B8: LC3A_free_39_2228 (protein)
chain: SKEEVEKLIKELAKEAGLPYEEVKKKIEEIKEIAGLSDEQMLEIIKALLEAVKAGADAREILEEAVKLAKELKAKGKSPEEIAEAILELIEDYRNLVPLD
B9: LC3A_147_458 (protein)
chain: YVVEVDIDLIVDEGKEEVIKRLKELAEELKEEGYKVKLEIKVEELEPGVYYIDAKITVETETKEEAEKAAQKILDRIDEIEEELKDKILGSLISVSIEEK
B10: LC3A_28_861 (protein)
chain: SKTRESIKKAKEELEKAKAKGEEVTIEIVVTEDVTDEEVEEVIEAIEKAAEVSKTVPGVSVIVDIEGKLDPEKLQKILDAGEEAIEKNPKLNVIFALDEE
B11: LC3A_3_1767 (protein)
chain: MEEFVEEVRKRLKELGADEETIEKAARAVRLLLERGLEETAKEVLETLEELLKISKELAEALAEEVLRILETSDDSPEEIAKKVREEIRNFRLEAEIEEL
B12: LC3A_free_46_2301 (protein)
chain: IKVEIDIYFGAAPLEKIEEAAKRLTETAEKKAKELGAEVEIEVKITKNEDGTYTLEIRITAKVKTLEDANKFIQAISDKVDEINKELGIAAIMSIEVIEE
B13: LC3A_128_228 (protein)
chain: SATRKEIKKLLEEALKILEEARSPELDEKLVEEAIKALKEAIKLVEKGAPKEEIKAALDKAIEALEKLLLDAQAKGLPEATDIAEALILVNEAQELVQTL
B14: LC3A_3_1376 (protein)
chain: AEELIEETLAFLREKGASEETLEAVRRAMEALAEKGYEEALKTFAELLREMADLPDELLLDFAEEVLEAVENEDLDEEELIKFIKEEARIARSESEIIEL
B15: LC3A_141_353 (protein)
chain: EKLEKEYVIEAKTPEEAIEKLEKVKEEIKKLMKEKGFKKVEVKVTIETLNKETGETETKVIEDVVTPENIDLVFDSLEIEVASAALKGDVKVTIKATLIK
B16: LC3A_free_8_2512 (protein)
chain: KSKEFAKAAVAILDELEKKIVELLKKKGKSRLDILDAELLIGSIIAEVISLSDKSMEEILKAIKEGLKELVEELSELKEEVKKLADEALKKIEEEKKKLE
B17: LC3A_3_1897 (protein)
chain: MDEEVEETLKLLKEAGASEETLEAFREVAEKLKERGYYEALKTLIEEMRKLIDAPSELLLDFLKEVLEVLETEDLSEEELIEKIKEIARLTRNEAEIIEL
B18: LC3A_28_1300 (protein)
chain: MSLEEQLEKAIEEAKKAAEKGEATVITIKVPGDADEEDIEKIIKALKEIAEILKDIPGSAIIIDVDADVPQEHITKLAEAAEEIEKKYPNVTVIIALEEP
B19: LC3A_3_1866 (protein)
chain: MEKIKEEILKLLKELGRSEETIEAARELAEALIERGYEEALKTLLEELKKLKDVDDEILLDMFKDILRAVEEENLDEEETIKLIKEEARIALNENEIEEL
B20: LC3A_17_575 (protein)
chain: SEEVEEVVKRTLKVLKEAAKFAEKIDKEAAEKIKKLIKKVEEAAKSGDEKETMKVAAEAMDEAADILDSLEDKDPENASLLSLEAEGVAIEAESVLLKLE
B21: LC3A_28_978 (protein)
chain: SSLEEELEKVLKEAKEAAAKGEPAVITVKVPGDTDEEETDRVIKALREIAEILKDVEGAAIIIDIDGGVPQEHRDRIIDEAERIEKEYPNITVIIALDER
B22: LC3A_28_1094 (protein)
chain: SELEKQLEEALKEVKEAAAAGEEVTVTIDVTDEATEEDIELLKEKLEEMAEIGKTLPRLSVIINLSGSKQQEFADIIGDFADELEAKYPNLTIIIALDED
B23: LC3A_28_1091 (protein)
chain: SALDASLAAALAETRAAAAAGEEVLVTITVTDEATEEDIERLKATLEEIAEIAASLPRLTVVIDLEGENQEEKANILSEFADELEAKYPNLTVIIALEEE
B24: LC3A_23_627 (protein)
chain: KVKLTVLIETIGSEEEIEENIKKVKEKVEEIKEKYKDKVLEVEVEVEVEKDEDGQWIAIITIKIVFDNDLEAAKEAAEELISFADENIPNGVVSYEIEEL
B25: LC3A_free_46_2403 (protein)
chain: YKGTIEIDALAESKEKAEQLAKEIKEAAEEIAKKYGAKVEIEVEIEEDEDGTVFVNITITVEAETEEKLQKFINEFIKKVDEIAEKLGVSYIISYEIEKL
B26: LC3A_28_1020 (protein)
chain: SHMEARVAAIEKEIKAAVAAGEEVVVTFTITPEDSLEEVRAAMARLKEIVLEAAKKGKVSLVVDLEKGVSQEKLDIVMEAADEIEAAAPNANVIIALEEE
B27: LC3A_45_1989 (protein)
chain: MAKATLDLLVPREKLEEALEVIERTAAELEARYGPALKVDLEKARKSAEETKDEEEVYLEVEITAPDMQTVLDAADEIEDALHEELGDSVASIISYDELE
B28: LC3A_28_1019 (protein)
chain: SAMEARVAAIEAEIAAAIAAGEDVVVTFTITPEDSLEEVRAAMERLKEIVLRAAKEGKVSLVVDLERGVSQEKLDVVAEKGDEIEEKAPNANVIIALEEE
B29: LC3A_free_46_2377 (protein)
chain: YKIIIDIDFSAMSREKAEEMAEEIKKAAEEISKKTGVKIEVEVEIITDEEGETWLRVRVTIEGEDEEKVRKAATELVDKFEEIAEEHGVSLIISIEEIKE

The full ranking holds about 2,300 sequences; the median of “median log2 fold change of GCK-ALFA target abundance (FLAG IP / Myc IP barcode read proportion)” is about 0.095, and the lowest 2% start at about -0.47. The list shows a part of the results.

This assay deals with MAP1LC3A, Q9H492. As to the kind of experiment: median log2 fold change of GCK-ALFA target abundance (FLAG IP / Myc IP barcode read proportion) (log2 ratio); each designed protein is fused to an ALFA-tag nanobody in HEK293 cells to bring the named protein to FLAG-tagged glucokinase (GCK); Myc marks an untargeted standard; higher = target protein stabilised (more abundant). To be noted: target protein: 3xFLAG-MCP-GCK-ALFA reporter; HEK293 landing pad (RPLP). An outline of the steps:
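An ALFA-nanobody-fused binder library was recombined into HEK293 landing-pad cells and induced with 2 μg mL^−1 doxycycline. Cells were transfected with a plasmid expressing a FLAG-tagged target and a Myc-tagged standard. After 48 h, lysates underwent anti-FLAG and anti-Myc immunoprecipitation, and circular RNA barcodes were reverse transcribed, amplified and sequenced. Target abundance is the per-binder median log2 ratio of FLAG to Myc barcode read proportions. Barcodes needed ≥10^−7 proportion in both replicates, binders ≥3 barcodes per replicate, and a 10^−6 pseudocount was added; the two replicates were pooled.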
B1: the “median log2 fold change” value is -0.13.

As for B2, the “median log2 fold change” value worked out at 0.0518.

For the molecule B3, the “median log2 fold change” value stood at 0.13.

As for B4, the “median log2 fold change” value was 0.373.

Consider B5, for which the “median log2 fold change” value was found to be 0.107.

Take B6: the “median log2 fold change” value turned out to be 0.0956.

With B7, the “median log2 fold change” value came out at 0.135.

In the case of B8, the “median log2 fold change” value was found to be 0.391.

Turning to B9, the “median log2 fold change” value was -0.104.

As for B10, the “median log2 fold change” value was determined as 0.231.

Consider B11, for which the “median log2 fold change” value came to 0.179.

With B12, the “median log2 fold change” value was -0.0458.

As for B13, the “median log2 fold change” value was determined as 0.197.

In the case of B14, the “median log2 fold change” value came to 0.0128.

Take B15: the “median log2 fold change” value stood at 0.171.

As for B16, the “median log2 fold change” value was found to be 0.00528.

In the case of B17, the “median log2 fold change” value stood at 0.32.

In the case of B18, the “median log2 fold change” value came out at 0.215.

Consider B19, for which the “median log2 fold change” value is 0.511.

Consider B20, for which the “median log2 fold change” value came to 0.0127.

With B21, the “median log2 fold change” value is -0.158.

As to B22, the “median log2 fold change” value came to 0.189.

For B23, the “median log2 fold change” value stood at 0.139.

B24: the “median log2 fold change” value amounted to 0.0177.

Take B25: the “median log2 fold change” value is -0.0704.

As to B26, the “median log2 fold change” value is -0.448.

In the case of B27, the “median log2 fold change” value is -0.0527.

As to B28, the “median log2 fold change” value is -0.357.

Consider B29, for which the “median log2 fold change” value is -0.267.
